The list shows a part of the results.
Tests used:
Experiment in all cases: glycan array binding signal (z-score within array); higher = stronger binding
Settings in all cases: glycan notation: IUPAC condensed, linker removed
[1] = target: Gal(b1-4)GlcNAc(b1-3)Gal(b1-4)GlcNAc(b1-3)Gal(b1-4)GlcNAc(b1-3)Gal(b1-4)GlcNAc(b1-2)Man(a1-3)[Gal(b1-4)GlcNAc(b1-3)Gal(b1-4)GlcNAc(b1-3)Gal(b1-4)GlcNAc(b1-3)Gal(b1-4)GlcNAc(b1-2)Man(a1-6)]Man(b1-4)GlcNAc(b1-4)GlcNAc
Method in brief: (§1)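 Glycan array binding is given as a within-array Z-score, which can be read as non-binding when negative. The arrays, 3228 of them, came from the Consortium for Functional Glycomics database and were retained only where the protein sequence was available. Z-scores were averaged across arrays of the same protein sequence at different concentrations or buffers and across linkers.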

[2] = target: Gal(b1-4)GlcNAc(b1-3)Gal(b1-4)GlcNAc(b1-3)Gal(b1-4)GlcNAc(b1-3)Gal(b1-4)GlcNAc(b1-2)Man(a1-3)[Gal(b1-4)GlcNAc(b1-3)Gal(b1-4)GlcNAc(b1-3)Gal(b1-4)GlcNAc(b1-3)Gal(b1-4)GlcNAc(b1-2)Man(a1-6)]Man(b1-4)GlcNAc(b1-4)[Fuc(a1-6)]GlcNAc
Method in brief: as §1

[3] = target: Gal(b1-4)GlcNAc(b1-3)Gal(b1-4)GlcNAc(b1-3)Gal(b1-4)GlcNAc(b1-3)Gal(b1-4)GlcNAc(b1-2)[Gal(b1-4)GlcNAc(b1-3)Gal(b1-4)GlcNAc(b1-3)Gal(b1-4)GlcNAc(b1-3)Gal(b1-4)GlcNAc(b1-6)]Man(a1-6)[Gal(b1-4)GlcNAc(b1-3)Gal(b1-4)GlcNAc(b1-3)Gal(b1-4)GlcNAc(b1-3)Gal(b1-4)GlcNAc(b1-2)Man(a1-3)]Man(b1-4)GlcNAc(b1-4)[Fuc(a1-6)]GlcNAc
Method in brief: as §1

[4] = target: Gal(b1-4)GlcNAc(b1-3)Gal(b1-4)GlcNAc(b1-3)Gal(b1-4)GlcNAc(b1-3)Gal(b1-4)GlcNAc(b1-3)Gal(b1-4)GlcNAc(b1-2)Man(a1-3)[Gal(b1-4)GlcNAc(b1-3)Gal(b1-4)GlcNAc(b1-3)Gal(b1-4)GlcNAc(b1-3)Gal(b1-4)GlcNAc(b1-3)Gal(b1-4)GlcNAc(b1-2)Man(a1-6)]Man(b1-4)GlcNAc(b1-4)GlcNAc
Method in brief: as §1

[5] = target: Gal(b1-4)GlcNAc(b1-3)Gal(b1-4)GlcNAc(b1-3)Gal(b1-4)GlcNAc(b1-3)Gal(b1-4)GlcNAc(b1-3)Gal(b1-4)GlcNAc(b1-2)Man(a1-3)[Gal(b1-4)GlcNAc(b1-3)Gal(b1-4)GlcNAc(b1-3)Gal(b1-4)GlcNAc(b1-3)Gal(b1-4)GlcNAc(b1-3)Gal(b1-4)GlcNAc(b1-2)Man(a1-6)]Man(b1-4)GlcNAc(b1-4)[Fuc(a1-6)]GlcNAc
Method in brief: as §1

[6] = target: Gal(b1-4)GlcNAc(b1-3)Gal(b1-4)GlcNAc(b1-3)Gal(b1-4)GlcNAc(b1-3)Gal(b1-4)GlcNAc(b1-3)Gal(b1-4)GlcNAc(b1-2)[Gal(b1-4)GlcNAc(b1-3)Gal(b1-4)GlcNAc(b1-3)Gal(b1-4)GlcNAc(b1-3)Gal(b1-4)GlcNAc(b1-3)Gal(b1-4)GlcNAc(b1-6)]Man(a1-6)[Gal(b1-4)GlcNAc(b1-3)Gal(b1-4)GlcNAc(b1-3)Gal(b1-4)GlcNAc(b1-3)Gal(b1-4)GlcNAc(b1-3)Gal(b1-4)GlcNAc(b1-2)Man(a1-3)]Man(b1-4)GlcNAc(b1-4)[Fuc(a1-6)]GlcNAc
Method in brief: as §1

[7] = target: Gal(b1-4)GlcNAc(b1-3)Gal(b1-4)GlcNAc(b1-3)Gal(b1-4)GlcNAc(b1-3)Gal(b1-4)GlcNAc(b1-3)Gal(b1-4)GlcNAc(b1-3)Gal(b1-4)GlcNAc(b1-2)Man(a1-3)[Gal(b1-4)GlcNAc(b1-3)Gal(b1-4)GlcNAc(b1-3)Gal(b1-4)GlcNAc(b1-3)Gal(b1-4)GlcNAc(b1-3)Gal(b1-4)GlcNAc(b1-3)Gal(b1-4)GlcNAc(b1-2)Man(a1-6)]Man(b1-4)GlcNAc(b1-4)GlcNAc
Method in brief: as §1

[8] = target: Gal(b1-4)GlcNAc(b1-3)Gal(b1-4)GlcNAc(b1-3)GalNAc
Method in brief: as §1

[9] = target: Gal(b1-4)GlcNAc(b1-3)Gal(b1-4)GlcNAc(b1-3)[Gal(b1-4)GlcNAc(b1-3)Gal(b1-4)GlcNAc(b1-6)]GalNAc
Method in brief: as §1

[10] = target: Gal(b1-4)GlcNAc(b1-3)Gal(b1-4)GlcNAc(b1-6)[Gal(b1-3)]GalNAc
Method in brief: as §1

[11] = target: Gal(b1-4)GlcNAc(b1-3)Gal(b1-4)[Fuc(a1-3)]GlcNAc(b1-3)Gal(b1-4)[Fuc(a1-3)]GlcNAc
Method in brief: as §1

[12] = target: Gal(b1-4)GlcNAc(b1-3)GalNAc
Method in brief: as §1

[13] = target: Gal(b1-4)GlcNAc(b1-3)[Fuc(a1-3)GlcNAc(b1-6)]Gal(b1-4)Glc
Method in brief: as §1

[14] = target: Gal(b1-4)GlcNAc(b1-3)[Gal(b1-4)GlcNAc(b1-6)]Gal(b1-4)GlcNAc
Method in brief: as §1

[15] = target: Gal(b1-4)GlcNAc(b1-3)[GlcNAc(b1-6)]Gal(b1-4)GlcNAc
Method in brief: as §1

[16] = target: Gal(b1-4)GlcNAc(b1-6)Gal(b1-4)GlcNAc
Method in brief: as §1

[17] = target: Gal(b1-4)GlcNAc(b1-6)GalNAc
Method in brief: as §1

[18] = target: Gal(b1-4)GlcNAc(b1-6)[Gal(b1-3)]GalNAc
Method in brief: as §1

[19] = target: Gal(b1-4)GlcNAc(b1-6)[Gal(b1-4)GlcNAc(b1-3)]GalNAc
Method in brief: as §1

[20] = target: Gal(b1-4)GlcNAc6P
Method in brief: as §1

[21] = target: Gal(b1-6)Gal
Method in brief: as §1

[22] = target: Gal3S(b1-3)GalNAc
Method in brief: as §1

[23] = target: Gal3S(b1-3)GlcNAc
Method in brief: as §1

[24] = target: Gal3S(b1-3)[Fuc(a1-4)]GlcNAc
Method in brief: as §1

[25] = target: Gal3S(b1-4)Glc
Method in brief: as §1

[26] = target: Gal3S(b1-4)Glc6S
Method in brief: as §1

[27] = target: Gal3S(b1-4)GlcNAc
Method in brief: as §1

[28] = target: Gal3S(b1-4)[Fuc(a1-3)]Glc6S
Method in brief: as §1

[29] = target: Gal3S(b1-4)[Fuc(a1-3)]GlcNAc
Method in brief: as §1

[30] = target: Gal3S(b1-4)[Fuc(a1-3)]GlcNAc6S
Method in brief: as §1

[31] = target: Gal3S4S(b1-4)GlcNAc
Method in brief: as §1

[32] = target: Gal3S6S(b1-4)GlcNAc
Method in brief: as §1

[33] = target: Gal3S6S(b1-4)GlcNAc6S
Method in brief: as §1

[34] = target: Gal4S(b1-4)GlcNAc
Method in brief: as §1

[35] = target: Gal4S6S(b1-4)GlcNAc
Method in brief: as §1

[36] = target: Gal6P(b1-4)GlcNAc
Method in brief: as §1

[37] = target: Gal6S(b1-3)GlcNAc
Method in brief: as §1

[38] = target: Gal6S(b1-3)GlcNAc6S
Method in brief: as §1

B1: PX9961A-pdi-456-24-456 (Parabacteroides distasonis) (protein)
chain: KTSSTQLPTIDAISSVADLTNAVNGVYEQQATEVGSYGAEFTLLADLRSGDFQSISTVNHAGPMYRYQTGKNDEMVYSFYKLFYNSLARLNNVLAAAENLEGADVDILKGELYAMRALYHFDLARVFAKLPSTTDMNDLGIVLSTEVYPTDYIGTRATLQQTYDQILKDIETALPLLSKDKQTGHINYWGALAIRARAYLYLEKNKEALADCKEIIASSPYKLYTRDEYIGAWDKEGTNEAIFEILVTPNYNAQRNSIGYFTHASGYGECAATESFLEELAKHPGDIRTELFAKETDNGYDGTYPQKYKGRDGQIYVNNPKVVRLSEVYLIAAEAALKAGDTSAAAGYMNTLRKNRIENYTDVASITLDDILLERRLELFTEGHTAWDAWRNGKSVNNKFVGEVKPGDYRTIMAIPIGEITVSRGQLIQNPGY
**Q.** How did the “glycan array binding signal (z-score)” value [1] turn out when B1 was run?
**A.** Its value is 0.035.

**Q.** What about the “glycan array binding signal (z-score)” value [2] of the same binder?
**A.** Its value is 6.49.

**Q.** What about the “glycan array binding signal (z-score)” value [3] of the same binder?
**A.** Its value is 0.94.

**Q.** What about the “glycan array binding signal (z-score)” value [4] of the same binder?
**A.** The value was 2.59.

**Q.** What about the “glycan array binding signal (z-score)” value [5] of the same binder?
**A.** The value was 0.467.

**Q.** And the “glycan array binding signal (z-score)” value [6]?
**A.** The value was 1.72.

**Q.** And the “glycan array binding signal (z-score)” value [7]?
**A.** The value was 7.59.

**Q.** What about the “glycan array binding signal (z-score)” value [8] of the same binder?
**A.** The value was 0.087.

**Q.** What about the “glycan array binding signal (z-score)” value [9] of the same binder?
**A.** Its value is 0.322.

**Q.** What about the “glycan array binding signal (z-score)” value [10] of the same binder?
**A.** Its value is -0.184.

**Q.** What about the “glycan array binding signal (z-score)” value [11] of the same binder?
**A.** The value was -0.001.

**Q.** And the “glycan array binding signal (z-score)” value [12]?
**A.** Its value is -0.441.

**Q.** What about the “glycan array binding signal (z-score)” value [13] of the same binder?
**A.** The value was -0.073.

**Q.** And the “glycan array binding signal (z-score)” value [14]?
**A.** Its value is -0.263.

**Q.** And the “glycan array binding signal (z-score)” value [15]?
**A.** Its value is -0.258.

**Q.** And the “glycan array binding signal (z-score)” value [16]?
**A.** Its value is -0.468.

**Q.** What about the “glycan array binding signal (z-score)” value [17] of the same binder?
**A.** Its value is 0.949.

**Q.** What about the “glycan array binding signal (z-score)” value [18] of the same binder?
**A.** Its value is -0.289.

**Q.** What about the “glycan array binding signal (z-score)” value [19] of the same binder?
**A.** The value was 0.084.

**Q.** What about the “glycan array binding signal (z-score)” value [20] of the same binder?
**A.** Its value is -0.254.

**Q.** What about the “glycan array binding signal (z-score)” value [21] of the same binder?
**A.** Its value is -0.515.

**Q.** What about the “glycan array binding signal (z-score)” value [22] of the same binder?
**A.** Its value is -0.226.

**Q.** What about the “glycan array binding signal (z-score)” value [23] of the same binder?
**A.** Its value is 0.194.

**Q.** And the “glycan array binding signal (z-score)” value [24]?
**A.** Its value is -0.263.

**Q.** What about the “glycan array binding signal (z-score)” value [25] of the same binder?
**A.** Its value is -0.121.

**Q.** And the “glycan array binding signal (z-score)” value [26]?
**A.** The value was -0.351.

**Q.** And the “glycan array binding signal (z-score)” value [27]?
**A.** The value was -0.267.

**Q.** And the “glycan array binding signal (z-score)” value [28]?
**A.** The value was 0.884.

**Q.** And the “glycan array binding signal (z-score)” value [29]?
**A.** Its value is 0.465.

**Q.** What about the “glycan array binding signal (z-score)” value [30] of the same binder?
**A.** Its value is -0.124.

**Q.** And the “glycan array binding signal (z-score)” value [31]?
**A.** Its value is -0.286.

**Q.** And the “glycan array binding signal (z-score)” value [32]?
**A.** Its value is 0.104.

**Q.** And the “glycan array binding signal (z-score)” value [33]?
**A.** The value was 0.59.

**Q.** And the “glycan array binding signal (z-score)” value [34]?
**A.** Its value is -0.117.

**Q.** What about the “glycan array binding signal (z-score)” value [35] of the same binder?
**A.** The value was -0.597.

**Q.** What about the “glycan array binding signal (z-score)” value [36] of the same binder?
**A.** Its value is -0.361.

**Q.** What about the “glycan array binding signal (z-score)” value [37] of the same binder?
**A.** Its value is -0.097.

**Q.** And the “glycan array binding signal (z-score)” value [38]?
**A.** The value was 0.172.
